This is an account of results in PubChem BioAssay AID488810 (Sanford-Burnham Center for Chemical Genomics, 2010).

The target in this assay is Type-1 angiotensin II receptor (Homo sapiens) (UniProt P30556). In words: AT1 receptor antagonists, beta-arrestin recruitment, SAR follow-up, selectivity assay for APJ antagonist project, cell-based, CHO-K1 PathHunter, luminescence (AID 488810).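 Note: agonist challenge with angiotensin II at 50 nM final near its EC80.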 The settings on record: CHO-K1 AGTR1 PathHunter beta-arrestin, antagonist mode.

A number of entries come with more than one value. The list is limited to them.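 Rule for the calls: active = compounds with IC50 below 20 µM; inactive = the rest.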 There may be further records. Values given together are repeats across runs, samples, wells, individuals or studies. Records carry a tag for their origin. Letters count within one entry.

`Cc1ccc(N=C2C(=O)Nc3ccccc32)cc1`: the IC50 is 17.5 µM [sample A] and inactive [sample B].

As usually defined, the IC50 is the concentration that inhibits the measured activity by half.
